Laboratory results: article PMC9911399, “Two distinct binding modes provide the RNA-binding protein RbFox with extraordinary sequence specificity”
Residue numbers refer to the chain shown, from its start. The list shows a part of the results.

T1: RBFOX1 RRM (Homo sapiens, UniProt Q9NWB1 109-208)
T1 sequence: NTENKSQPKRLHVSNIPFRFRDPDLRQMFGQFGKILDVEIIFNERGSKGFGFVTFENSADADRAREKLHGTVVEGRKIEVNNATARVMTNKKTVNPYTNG

B1: AACUUUA (DNA:RNA)
RNA: GGGAGACCGGAAUUCAGAUUGUCCAACUUUAUUAAAUCCCGUCGUAGCCACCA
DNA 1: CAATCTGAATTCCGGTCTCCC
DNA 2: TGGTGGCTACGACGGGATT
B2: UCGCUUU (DNA:RNA)
RNA: B1 RNA with A25U, A26C, C27G, U28C, A31U
DNA 1: CAATCTGAATTCCGGTCTCCC
DNA 2: TGGTGGCTACGACGGGATT
B3: UGGGGAA (DNA:RNA)
RNA: B1 RNA with A25U, A26G, C27G, U28G, U29G, U30A
DNA 1: CAATCTGAATTCCGGTCTCCC
DNA 2: TGGTGGCTACGACGGGATT
B4: UCAGAAG (DNA:RNA)
RNA: GGGAGACCGGAAUUCAGAUUGUCCUCAGAAGUUAAAUCCCGUCGUAGCCACCA
DNA 1: CAATCTGAATTCCGGTCTCCC
DNA 2: TGGTGGCTACGACGGGATT
B5: CGCGUGC (DNA:RNA)
RNA: B1 RNA with A25C, A26G, U28G, U30G, A31C
DNA 1: CAATCTGAATTCCGGTCTCCC
DNA 2: TGGTGGCTACGACGGGATT
B6: CAUCGGC (DNA:RNA)
RNA: B1 RNA with A25C, C27U, U28C, U29G, U30G, A31C
DNA 1: CAATCTGAATTCCGGTCTCCC
DNA 2: TGGTGGCTACGACGGGATT
B7: CGCUAAG (DNA:RNA)
RNA: B4 RNA with U25C, C26G, A27C, G28U
DNA 1: CAATCTGAATTCCGGTCTCCC
DNA 2: TGGTGGCTACGACGGGATT
B8: AAAGGUA (DNA:RNA)
RNA: B1 RNA with C27A, U28G, U29G
DNA 1: CAATCTGAATTCCGGTCTCCC
DNA 2: TGGTGGCTACGACGGGATT
B9: UUACCCU (DNA:RNA)
RNA: B4 RNA with C26U, G28C, A29C, A30C, G31U
DNA 1: CAATCTGAATTCCGGTCTCCC
DNA 2: TGGTGGCTACGACGGGATT
B10: ACGCUCU (DNA:RNA)
RNA: B1 RNA with A26C, C27G, U28C, U30C, A31U
DNA 1: CAATCTGAATTCCGGTCTCCC
DNA 2: TGGTGGCTACGACGGGATT
B11: AAGCUGG (DNA:RNA)
RNA: B1 RNA with C27G, U28C, U30G, A31G
DNA 1: CAATCTGAATTCCGGTCTCCC
DNA 2: TGGTGGCTACGACGGGATT
B12: CAUGAAC (DNA:RNA)
RNA: B4 RNA with U25C, C26A, A27U, G31C
DNA 1: CAATCTGAATTCCGGTCTCCC
DNA 2: TGGTGGCTACGACGGGATT
B13: AUUUUAG (DNA:RNA)
RNA: B1 RNA with A26U, C27U, U30A, A31G
DNA 1: CAATCTGAATTCCGGTCTCCC
DNA 2: TGGTGGCTACGACGGGATT
B14: GCUCUUC (DNA:RNA)
RNA: B1 RNA with A25G, A26C, C27U, U28C, A31C
DNA 1: CAATCTGAATTCCGGTCTCCC
DNA 2: TGGTGGCTACGACGGGATT
B15: GGCAACU (DNA:RNA)
RNA: B1 RNA with A25G, A26G, U28A, U29A, U30C, A31U
DNA 1: CAATCTGAATTCCGGTCTCCC
DNA 2: TGGTGGCTACGACGGGATT
B16: GCCAAGG (DNA:RNA)
RNA: B4 RNA with U25G, A27C, G28A, A30G
DNA 1: CAATCTGAATTCCGGTCTCCC
DNA 2: TGGTGGCTACGACGGGATT
B17: CGCGGGU (DNA:RNA)
RNA: B1 RNA with A25C, A26G, U28G, U29G, U30G, A31U
DNA 1: CAATCTGAATTCCGGTCTCCC
DNA 2: TGGTGGCTACGACGGGATT
B18: UGGCCCC (DNA:RNA)
RNA: B4 RNA with C26G, A27G, G28C, A29C, A30C, G31C
DNA 1: CAATCTGAATTCCGGTCTCCC
DNA 2: TGGTGGCTACGACGGGATT
B19: GUGCAGU (DNA:RNA)
RNA: B4 RNA with U25G, C26U, A27G, G28C, A30G, G31U
DNA 1: CAATCTGAATTCCGGTCTCCC
DNA 2: TGGTGGCTACGACGGGATT
B20: ACACAAG (DNA:RNA)
RNA: B4 RNA with U25A, G28C
DNA 1: CAATCTGAATTCCGGTCTCCC
DNA 2: TGGTGGCTACGACGGGATT

Each binder was assayed against T1, RBFOX1 RRM (assay: EMSA; HiTS-Eq, 1 nM pool, 10 min; buffer printed only for the single-RNA assays: 10 mM Tris pH 7.5, 150 mM NaCl, 3.4 mM EDTA, 0.001% NP-40, 30 C). Conditions: tags: His6 N-terminal (pET28a); label: 5' 32P.
Method in brief: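 Purified RbFox RRM, wild type or mutant, was incubated for 10 min in 50 µL with 1 nM of a 5′-radiolabelled RNA pool carrying 7 randomized nucleotides, whose flanks were annealed to DNA oligonucleotides, over a series of increasing protein concentrations. Unbound RNA was resolved on 8% native PAGE, cut out, reverse-transcribed, barcoded by PCR and sequenced on an Illumina HiSeq 2500. Relative association constants were derived from changes in read counts for each RNA species versus the control reaction and normalised to the cognate motif.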

Question: With B1 as the binder, how does the binding signal read?
Answer: The binding signal was 0.000524 KA relative to UGCAUGU.

Question: With B2 as the binder, how does the binding signal read?
Answer: The binding signal was 0.0132 KA relative to UGCAUGU.

Question: For B3, which binding signal is on record?
Answer: The binding signal was 0.0174 KA relative to UGCAUGU.

Question: How did the binding signal turn out when B4 was run?
Answer: The binding signal was 0.00595 KA relative to UGCAUGU.

Question: B5 was tested. Which binding signal did it give?
Answer: Its binding signal is 0.0241 KA relative to UGCAUGU.

Question: B6 was tested. Which binding signal did it give?
Answer: Its binding signal is 0.00665 KA relative to UGCAUGU.

Question: For B7, which binding signal is on record?
Answer: Its binding signal is 0.00892 KA relative to UGCAUGU.

Question: How did the binding signal turn out when B8 was run?
Answer: Its binding signal is 0.00508 KA relative to UGCAUGU.

Question: For B9, which binding signal is on record?
Answer: Its binding signal is 0.00311 KA relative to UGCAUGU.

Question: How did the binding signal turn out when B10 was run?
Answer: The binding signal was 0.00565 KA relative to UGCAUGU.

Question: Which binding signal does the source give for B11 here?
Answer: The binding signal was 0.0133 KA relative to UGCAUGU.

Question: How did the binding signal turn out when B12 was run?
Answer: Its binding signal is 0.00509 KA relative to UGCAUGU.

Question: With B13 as the binder, how does the binding signal read?
Answer: The binding signal was 0.00948 KA relative to UGCAUGU.

Question: B14 was tested. Which binding signal did it give?
Answer: Its binding signal is 0.0155 KA relative to UGCAUGU.

Question: For B15, which binding signal is on record?
Answer: Its binding signal is 0.00583 KA relative to UGCAUGU.

Question: With B16 as the binder, how does the binding signal read?
Answer: The binding signal was 0.013 KA relative to UGCAUGU.

Question: For B17, which binding signal is on record?
Answer: The binding signal was 0.00704 KA relative to UGCAUGU.

Question: B18 was tested. Which binding signal did it give?
Answer: Its binding signal is 0.0181 KA relative to UGCAUGU.

Question: B19 was tested. Which binding signal did it give?
Answer: Its binding signal is 0.0179 KA relative to UGCAUGU.

Question: B20 was tested. Which binding signal did it give?
Answer: Its binding signal is 0.000734 KA relative to UGCAUGU.
